Source: the antibiotic and cytotoxicity screens of Wong et al. (2023)
This is one part of the list.

What follows are compounds tested on HSkMC (human skeletal muscle cells) (assay: cytotoxicity call (relative viability < 0.9)). Conditions: 10 µM.

| Compound | cytotoxicity call |
| --- | --- |
| COCCOC(=O)N1C(=O)[C@@]2(c3cc(C#CCCO)ccc31)[C@H](c1ccc(O)cc1)N1[C@H](c3ccccc3)[C@H](c3ccccc3)OC(=O)[C@H]1[C@@H]2C(=O)N1CCc2cc(OC)c(OC)cc2C1 | inactive |
| C[C@@H]1CN([C@H](C)CO)C(=O)c2cc(C#CC3(O)CCCC3)cnc2O[C@@H]1CN(C)C(=O)Cc1cccnc1 | inactive |
| CO[C@@H](CN(C)S(=O)(=O)c1ccc(Cl)cc1)[C@@H](C)CN([C@@H](C)CO)S(=O)(=O)c1cccc(Cl)c1 | inactive |
| Cc1ccc(S(=O)(=O)N(C)C[C@H]2OCCCC[C@H](C)Oc3ccc(NC(=O)Nc4ccccc4)cc3C(=O)N([C@H](C)CO)C[C@@H]2C)cc1 | inactive |
| COc1ccc(NC(=O)N(C)C[C@H]2OCCCC[C@@H](C)Oc3ccc(NS(=O)(=O)c4ccc(Cl)cc4)cc3C(=O)N([C@H](C)CO)C[C@H]2C)cc1 | inactive |
| COc1cccc(-c2ccc3c(c2)O[C@H](CN(C)C(=O)C2CCC2)[C@@H](C)CN([C@@H](C)CO)S3(=O)=O)c1 | inactive |
| C[C@@H]1CN([C@H](C)CO)C(=O)c2cc(NC(=O)Cn3cnnn3)ccc2O[C@H]1CN(C)C(=O)Nc1ccc2c(c1)OCO2 | inactive |
| N#CCC(=O)N1CCCCC1 | inactive |
| COc1ccc(NC(=O)Nc2ccc3c(c2)C(=O)N([C@@H](C)CO)C[C@H](C)[C@H](CN(C)CC2CCCCC2)OCCCC[C@@H](C)O3)cc1 | inactive |
| C=CCC[C@H](Cc1ccc(F)cc1)C(=O)OC[C@@H](Cc1c[nH]c2ccccc12)NC(=O)[C@H](CC=C)CC(=O)N(CCO)Cc1ccccc1 | active |
| C[C@@H]1CCCCO[C@@H](CN(C)C(=O)c2ccncc2)[C@H](C)CN([C@H](C)CO)C(=O)c2cc(NS(C)(=O)=O)ccc2O1 | inactive |
| C[C@@H]1CCCCO[C@@H](CN(C)C(=O)CCC(F)(F)F)[C@@H](C)CN([C@@H](C)CO)C(=O)c2cc(NC(=O)Cc3ccccc3)ccc2O1 | inactive |
| CN(C)c1ccc(O)c2c1CC1CC3C(N(C)C)C(O)=C(C(N)=O)C(=O)C3(O)C(O)=C1C2=O.Cl (stereo not given) | inactive |
| CC(=O)N1CCC2(CCCN2)CC1 | inactive |
| COc1ccc(S(=O)(=O)N2C[C@@H](O)COC[C@@H]3O[C@@H](CC(=O)N[C@H]4CCN(Cc5ccccc5)C4)CC[C@H]32)cc1 | inactive |
| C[C@H]1CN([C@@H](C)CO)C(=O)c2cccc(NC(=O)C3CCCCC3)c2O[C@@H]1CN(C)Cc1ccc(-c2ccccc2)cc1 | inactive |
| COc1nn(C)cc1C(=O)N1CCN(C)CC1 | inactive |
| O=c1cc(-c2cc(O)c(O)c(O)c2)oc2cc(O)cc(O)c12 | inactive |
| CCCCCS(=O)(=O)CCCCCCCCCCn1c(-c2ccc(O)cc2)c(C)c2cc(O)ccc21 | active |
| C[n+]1ccc(CCCO)cc1 | inactive |

| Compound | cytotoxicity call |
| --- | --- |
| Cc1ccc(S(=O)(=O)N[C@H]2CC[C@H](CCNC(=O)CN3CCOCC3)O[C@@H]2CO)cc1 | inactive |
| C[C@H]1CN([C@@H](C)CO)C(=O)c2cc(NC(=O)Cc3cn(C)c4ccccc34)ccc2O[C@@H]1CN(C)C(=O)Nc1ccc(C(F)(F)F)cc1 | inactive |
| C[C@@H]1CN([C@@H](C)CO)C(=O)Cc2cc(NC(=O)Cn3cnnn3)ccc2O[C@H]1CN(C)S(C)(=O)=O | inactive |
| Cc1noc(C)c1NC(=O)Nc1ccc2c(c1)CC(=O)N([C@@H](C)CO)C[C@@H](C)[C@@H](CN(C)Cc1ccc(-c3ccccc3)cc1)O2 | inactive |
| C[C@H](CO)N1C[C@H](C)[C@@H](CN(C)Cc2ccc(-c3ccccc3)cc2)Oc2c(NC(=O)Nc3ccc4c(c3)OCO4)cccc2C1=O | inactive |
| Cc1ccc(S(=O)(=O)Nc2ccc3c(c2)C(=O)N([C@@H](C)CO)C[C@@H](C)[C@H](CN(C)C(=O)Nc2c(C)noc2C)OCCCC[C@H](C)O3)cc1 | inactive |
| C[C@@H]1CN([C@H](C)CO)S(=O)(=O)c2ccc(C#CCN(C)C)cc2O[C@H]1CN(C)Cc1ccncc1 | inactive |
| CCS(=O)(=O)N1C[C@]2(CCN(CC2)C(=O)NC2CCCC2)c2c(n(c3cc(ccc23)OC)C)[C@@H]1CO | inactive |
| COC(=O)C1=C(C)NC(C)=C(C(=O)OCCCN2CCC(c3ccccc3)(c3ccccc3)CC2)[C@@H]1c1cccc([N+](=O)[O-])c1 | active |
| Cc1cc(CC(=O)O)n(C)c1C(=O)c1ccc(Cl)cc1 | inactive |
| C[C@H]1CN([C@@H](C)CO)C(=O)c2cccc(NS(=O)(=O)c3ccc(Cl)cc3)c2O[C@@H]1CN(C)Cc1ccc(-c2ccccc2)cc1 | inactive |
| C[C@@H]1CCCCO[C@@H](CN(C)Cc2ccc3c(c2)OCO3)[C@H](C)CN([C@@H](C)CO)C(=O)c2cc(NC(=O)NC3CCCCC3)ccc2O1 | inactive |
| COc1nonc1NC(C)=O | inactive |
| C[C@@H]1CCCCO[C@@H](CN(C)S(=O)(=O)c2cn(C)cn2)[C@H](C)CN([C@H](C)CO)C(=O)c2cc(NS(=O)(=O)c3ccc(F)cc3)ccc2O1 | inactive |
| Cc1cc(C(=O)Nc2cccc3c2O[C@H](CN(C)S(=O)(=O)c2ccc(F)cc2)[C@H](C)CN([C@@H](C)CO)C3=O)n(C)n1 | inactive |
| O=C(C1=C[C@@H](c2csc3ccccc23)C[C@@H](OCc2ccc(CO)cc2)O1)N1CCN(Cc2ccccc2)CC1 | inactive |
| C[C@H]1CN([C@@H](C)CO)C(=O)c2cc(C#CC3CCCCC3)cnc2O[C@@H]1CN(C)C(=O)c1ccncc1 | inactive |
| CCC(C=CC(C)C1CCC2C3CCC4=CC(=O)CCC4(C)C3CCC12C)C(C)C (stereo not given) | inactive |
| C[C@@H]1CCCCO[C@H](CN(C)S(=O)(=O)c2cn(C)cn2)[C@H](C)CN([C@@H](C)CO)C(=O)c2cc(N(C)C)ccc2O1 | inactive |
| COc1ccc(NC(=O)N(C)C[C@@H]2OCCCC[C@H](C)Oc3ccc(NS(=O)(=O)c4ccc(F)cc4)cc3C(=O)N([C@H](C)CO)C[C@@H]2C)cc1 | inactive |
